PubChem BioAssay AID493014 (National Center for Advancing Translational Sciences (NCATS), 2011)
About 170 (0.05%) of roughly 340,000 compounds were called active. Another 26% or so got no clear call; they are omitted. The call rests on the fitted dose curve; in most records, active means well fitted inhibition curve with a large enough effect in the signal ratio, with a control signal flat (not every such curve was filed as active); inconclusive means small, poorly fitted or top-dose-only effect, or effect the other way, or a change in a side signal; inactive means flat fitted curve, though single readings scatter; the % refers to the signal ratio. This is a selection; strong and weak results do not stand in their true shares.

Assay: qHTS Assay to Find Inhibitors of Chronic Active B-Cell Receptor Signaling;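 on activity change, negative = inhibition: plate controls were basal doxycycline-induced cells for no effect and cells given 10 µM MG132 for full effect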
Conditions: ABC-DLBCL IkBa-CBG/CBR reporter, luminescence ratio (green luciferase fused to IkBa over red control in TMD8 lymphoma cells), 4 h; series mostly up to 46.1 µM; activity change, negative = inhibition: at the top concentration
In short: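 Concentration-response series (up to 46 uM) were applied to TMD8 dual-reporter cells for 4 h at 37C with doxycycline. Green/red ratio, after filter-overlap correction, defined %Activity; red signal alone was normalised to basal cells and zero luminescence.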
Potency means the concentration at half of the fitted maximal effect.

| Compound | activity change, negative = inhibition | Potency |
| --- | --- | --- |
| c1cc2c(cc1[C@H]1OC[C@H]3[C@@H]1CO[C@H]3c1ccc3c(c1)OCO3)OCO2 | inactive: 0.476% |  |
| C[N+]1(C)C2CC[C@H]1CC(OC(=O)C(CO)c1ccccc1)C2 (stereo not given in full) | inactive: 0.0514% |  |
| C[C@]12CCC(=O)C=C1CC[C@@H]1C2CC[C@]2(C)C(=O)CCC12 (stereo not given in full) | inactive: -6.49% |  |
| O=[N+]([O-])c1cc(Cl)c2cccnc2c1O |  | active: 11.2 µM |
| CCOC(=O)[C@@H]1[C@H]2COc3ccc(Br)cc3[C@H]2N2C(=O)N(c3cccc(C)c3)C(=O)[C@]12C | inactive: 0.459% |  |
| COc1ccc2[nH]c3c(c2c1)CCNC3C (stereo not given) | inactive: 2.91% |  |
| CC(=O)OCC[N+](C)(C)C |  | inactive |
| C[C@]12CCC3C(CC[C@H]4C[C@@H](O)CC[C@]34C)C1C[C@@H](Br)[C@@H]2O (stereo not given in full) | inactive: 4.05% |  |
| C[C@]12CCC(=O)C=C1CCC1C2CC[C@@]2(C)C1CC[C@]2(C)O (stereo not given in full) | inactive: -1.57% |  |
| CC[n+]1c(/C=C2/C=C(C)CC(C)C2)sc2ccccc21 (stereo not given) | inactive: -5.13% |  |
| COc1ccc2c(c1OC)C(=O)O[C@H]2[C@@H]1c2cc3c(cc2CCN1C)OCO3 | inactive: -3.16% |  |
| CN(C)[C@@H]1C(=O)C(C(N)=O)=C(O)[C@@]2(O)C(=O)C3=C(O)c4c(O)cccc4[C@@](C)(O)[C@H]3[C@H](O)[C@@H]12 |  | inactive |
| CNC(=O)Oc1ccc2c(c1)[C@]1(C)CCN(C)C1N2C (stereo not given in full) | inactive: 2.24% |  |
| Clc1ccc(COC(Cn2ccnc2)c2ccc(Cl)cc2Cl)c(Cl)c1 (stereo not given) | inactive: -6.25% |  |
| CN1CCc2cccc3c2[C@H]1Cc1ccc(O)c(O)c1-3 | inactive: -6.37% |  |
| Cc1cc(/C=C2/SC(=O)NC2=O)c(C)n1-c1ccc(N2CCOCC2)cc1 | inactive: 0.182% |  |
| CCCC[N+]1(C)C2CC(OC(=O)C(CO)c3ccccc3)CC1C1OC12 (stereo not given) | inactive: 0.87% |  |
| CN(C)[C@@H]1C(=O)C(C(N)=O)=C(O)[C@@]2(O)C(=O)C3=C(O)c4c(O)cccc4[C@@](C)(O)C3[C@H](O)C12 (stereo not given in full) |  | inactive |

| Compound | activity change, negative = inhibition | Potency |
| --- | --- | --- |
| CC(C)C[C@H]1C(=O)N2CCC[C@H]2[C@]2(O)O[C@](NC(=O)[C@@H]3C=C4c5cccc6[nH]cc(c56)C[C@H]4N(C)C3)(C(C)C)C(=O)N12 | inactive: 4.26% |  |
| C[C@@H]1CCC2[C@@H](C)C(=O)O[C@@H]3OC4(C)CCC1[C@@]23OO4 (stereo not given in full) | inactive: 0.539% |  |
| NC(N)=Nc1ccc2[nH]c3c(c2c1)C[C@@]1(O)[C@H]2Cc4ccc(O)c5c4[C@@]1(CCN2CC1CC1)[C@H]3O5 |  | active: 23.1 µM |
| COc1ccc2c(c1OC)C(=O)O[C@@H]2[C@H]1c2cc3c(cc2CCN1C)OCO3 | inactive: -6.46% |  |
| O=C(O)CCCCC1SCC2NC(=O)NC21 (stereo not given) | inactive: -0.483% |  |
| CC1CCC2C(C)C(=O)OC3OC4(C)CCC1C32OO4 (stereo not given) | inactive: 1.69% |  |
| CCN(CC)CCN=Cc1c(O)n(Cc2ccccc2)c(=O)[nH]c1=O | inactive: 5.41% |  |
| C[N+]1(C)C2CCC1CC(OC(=O)C(CO)c1ccccc1)C2 (stereo not given) | inactive: 12.9% |  |
| C[C@]12CC[C@H]3[C@@H](CCC4=CC(=O)CC[C@@]43C)[C@@H]1CC[C@@H]2O | inactive: 0.966% |  |
| O=C(Cn1c[n+](CC(=O)c2ccc([N+](=O)[O-])cc2)cn1)c1ccc([N+](=O)[O-])cc1 | inactive: -0.651% |  |
| CCN1C[C@]2(COC(=O)c3ccccc3N)CC[C@H](OC)C34[C@@H]5C[C@H]6[C@H](OC)[C@@H]5[C@](O)(C[C@@H]6OC)[C@@](O)([C@H]13)[C@@H](OC)[C@@H]42 | inactive: 6.94% |  |
| O=C(OCC(=O)c1ccc([N+](=O)[O-])cc1)/C(=C/c1ccc(Cl)cc1)NC(=O)c1ccccc1 | inactive: -5.55% |  |
| COc1ccc(NC(=O)Cn2c(=O)oc3ccccc32)cc1 | inactive: 0.376% |  |
| CC(C)c1ccc(N2C(=O)NC(=O)/C(=C\C=C\c3ccco3)C2=O)cc1 | inactive: 14.1% |  |
| CC[C@]12C=CCN3CCC4(c5cc(Br)c(OC)cc5N(C)C4[C@@](O)(C(=O)OC)[C@@H]1OC(C)=O)C32 (stereo not given in full) | inactive: -0.254% |  |
| C[C@H](CCC(=O)O)[C@H]1CC[C@H]2[C@@H]3[C@@H](O)C[C@@H]4C[C@H](O)CC[C@]4(C)[C@H]3CC[C@]12C | inactive: 5.75% |  |
| CCSc1nnc(C(N)Cc2ccccc2)o1 (stereo not given) | inactive: 1.57% |  |
